Data: the supplement of paper PMC10338343
± gives the standard deviation. Only a part is listed here, and it is no random draw.

The sequences below were run on MIWI (PIWIL1) piRISC loaded with L1MC piRNA (30 nt) (assay: pre-steady-state target cleavage rate (min^-1); MIWI and MILI are mouse PIWI proteins and EfPiwi is from a freshwater sponge; tags in brackets are library labels; higher = faster piRNA-guided slicing of the target). Settings: guide: L1MC piRNA 5'p-UAACUAAAUACUAUGCAAGCUGUAGGUCCU; auxiliary factor: 500 nM mouse GTSF1.
Summary of the method: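 Cleave-'n-Seq: a transcribed, DNA-blocked target RNA library (0.1 nM) was mixed with 1 nM active affinity-purified piRISC carrying one synthetic guide, with or without 500 nM GTSF1 partner protein, in HEPES–potassium acetate buffer at 33 °C for 0–8 or 0–960 min. Uncleaved targets were sequenced and normalised to depth and to weakly complementary targets. Three trials were pooled, and k3 was capped at 0.0001 min^-1. The pre-steady-state cleavage rate came from a burst-and-steady-state fit.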

UCCUGGAACAGCUACGAUAGUAUUUAGUUA and UCCUGGAUGUCGAUGCAUAGUAUUUAGUGA are within error of each other in “pre-steady-state target cleavage rate” value: 0.0171 ± 0.0039 for the first, 0.0103 ± 0.0037 for the second.

UCCUGGAUGUCGAAGCAUAGUAUUUACGUUA and “UCCUGGAUGUCGAAGCAUAGUAUUUAGUUG [g2:g16:cont:t1G]” are within error of each other in “pre-steady-state target cleavage rate” value: 0.00575 ± 0.003 for the first, 0.00362 ± 0.0031 for the second.

Compared with UCCUGCUACAGCUUGCAUAGUUAAUAGUAA, UCCUGGAUCAGCUUGCAUAGUAUAAAGUAA is higher in “pre-steady-state target cleavage rate” value: 0.0512 ± 0.018 for the first, 0.239 ± 0.039 for the second.

First: UCGACCUACAGCUAGCAUAGUAUUUACAAA
Second: UCCUGGAUGUGCUAGGAUAGUAUUUAGUUA
The “pre-steady-state target cleavage rate” value of the first is higher: 0.377 ± 0.041 for the first, 0.011 ± 0.0038 for the second.

UCCUGCUACAGCUUGCAUAAGUAUUUAGUUA and UGGACCUACAGCUUGCUAAGUAUUUUCAAA are within error of each other in “pre-steady-state target cleavage rate” value: 0.0112 ± 0.0056 for the first, 0.00364 ± 0.0036 for the second.

Compared with UCCACCUACAGCUUGCAUAGUAUAAAGAAA, UCGACCUACAGCUUGCAUAGUAAAUACAAA is lower in “pre-steady-state target cleavage rate” value: 0.305 ± 0.066 for the first, 0.177 ± 0.045 for the second.

UCCUGGAUGUCGAUGCAUAGUAUUUCGUUA and UCCUGCUACAGGAAGCAUAGUAUUUACAAA are within error of each other in “pre-steady-state target cleavage rate” value: 0.00613 ± 0.004 for the first, 0.0144 ± 0.0057 for the second.

First: UGGACCUACAGCUACGAUAGUAUUUAGUAA
Second: UCGACCUACAGCUUGCAUAGUAUUAUCAAA
The “pre-steady-state target cleavage rate” value of the first is lower: 0.0193 ± 0.0048 for the first, 0.417 ± 0.065 for the second.

“UCCUGGUACAGCUUGCAUAGUUAAAUCAAA [g10:g24:cont:t1A]” and UCCUGGAUGUCCUUGCAUAGUAUUCUAGUUA are within error of each other in “pre-steady-state target cleavage rate” value: 0.018 ± 0.0084 for the first, 0.0314 ± 0.0088 for the second.

Compared with UCGACCUACAGCUUCCAUAGUAUUUAGUAA, AGGACCUACAGCUUGCAUAGUUAUUUCAAA is higher in “pre-steady-state target cleavage rate” value: 0.075 ± 0.018 for the first, 0.243 ± 0.079 for the second.

Going from UCCACCUACAGCUUCGAUAGUAUUUAGAAA to UCCUGGAUCAGCUAGCAUAGUAUUUACAAA, the “pre-steady-state target cleavage rate” value rises from 0.0807 ± 0.021 to 0.275 ± 0.063.

For UCCACCUUGAGCUUGCAUAGUAUUUUCAAA, the “pre-steady-state target cleavage rate” value was 0.0995 ± 0.02.
